# Laboratory results as given in PubChem BioAssay (NCATS).
# The inconclusive results got no clear call from the source; some entries with a clear call stand among them for comparison. No potency is given beside an inconclusive call; the fits are too rough. Activity calls are given as the source filed them. Unless noted, calls come from the whole dose curve; as a rule, active = well fitted curve in the direction sought with a large enough effect; inconclusive = small, poorly fitted or top-dose-only effect, or another doubt; inactive = no such curve, though single readings can be large; an effect the other way counts as inactive or inconclusive.
# Tests used:
# [1] = Primary qHTS for small molecule stabilizers of the endoplasmic reticulum resident proteome: Secreted ER Calcium Modulated Protein (SERCaMP) assay (AID 1508630); conditions: SH-SY5Y GLuc-SERCaMP (Gaussia luciferase released on ER calcium loss) secretion, thapsigargin, luminescence; activity change, negative = inhibition: at 38.4 µM (top of the series) unless noted
# Method in brief: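 GLuc-SERCaMP-expressing SH-SY5Y cells, pretreated 16 h with compound, are challenged with thapsigargin to empty ER calcium stores; after 4 h, coelenterazine is added directly to the medium and luminescence is imaged.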
# CRL-7250 = normal cell line; assay: Cytotoxic Profiling of Annotated Libraries Using Quantitative High-Throughput Screening (AID 1296008); conditions: Five cell lines viability, CellTiter-Glo ATP luminescence, 48-72 h; max response: hits give low values; note: nearly all actives have a fitted effect of over 60% in size; for max response: % is set by controls: 0 for no effect and ±100 for the full control effect
# Method in brief: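 Cells exposed to compounds for 48 or 72 hr at 37 degrees Celsius. Viability read as ATP-coupled luminescence with CellTiter-Glo after 10 min at room temperature.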
# C33A = assay: Primary qHTS to identify gynecologic anti-cancer compounds using libraries of approved drugs and bioactive compounds (AID 1345084); conditions: Gynecologic cancer cell panel viability, ATPlite luminescence, 48 h; series mostly up to 57.5 µM; note: nearly all actives have a fitted effect of over 55% in size; for activity change, negative = cytotoxicity: % is set by controls: 0 for no effect and ±100 for the full control effect
# Method in brief: (§1)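 Cells, 1,000 per well, were allowed to settle for 16 h at 37 C before compound addition. Five concentrations were tested for 48 h, and viability was read by ATPlite luminescence after 15 min at room temperature.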
# Tov-21-G = assay: as above; conditions: Gynecologic cancer cell panel viability, ATPlite luminescence, 48 h; activity change, negative = cytotoxicity: at 57.5 µM (top of the series) unless noted
# Method in brief: as §1
# [2] = P-glycoprotein substrates identified in KB-8-5-11 adenocarcinoma cell line, qHTS therapeutic library screen (AID 1346987); note: nearly all actives have a fitted effect of over 65% in size
# Method in brief: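 KB-8-5-11, a colchicine-selected P-gp-overexpressing KB-3-1 subline, was grown without colchicine for the assay. Cells were seeded at 500 cells/well, dosed in concentration-response and incubated 72 h at 37 degree C, 5% CO2. Viability was read by CellTiter-Glo luminescence.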
# [3] = qHTS of pediatric cancer cell lines to identify multiple opportunities for drug repurposing: Primary screen for SK-N-MC cells (AID 1347093); conditions: SK-N-MC viability, CellTiter-Glo luminescence, 48 h; activity change, negative = cytotoxic: at 46 µM (top of the series);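 for activity change, negative = cytotoxic: plate controls were DMSO neutral control for no effect and bortezomib for full effect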
# Method in brief: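 Metabolically active cells were quantified by ATP-dependent luminescence (CellTiter-Glo, 15 min at room temperature) following 48 h treatment. Cells had been plated at 500-1,000 per well and settled for 5 h beforehand.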
# [4] = biological target: Cytochrome P450 2D6 (Homo sapiens) (UniProt P10635); assay: Cytochrome P450 family 2 subfamily D member 6 (CYP2D6) small molecule antagonists: luciferase biochemical (cell-free) qHTS assay (AID 1645840; active = well fitted curve in the direction sought with a large enough effect in the repeat runs; inconclusive = weak or mixed curves; inactive = no such curve, though single readings can be large; an effect the other way counts as inactive or inconclusive; note: nearly all actives have a fitted effect of over 55% in size)
# Chain of UniProt P10635 (P10635 whole entry, looked up): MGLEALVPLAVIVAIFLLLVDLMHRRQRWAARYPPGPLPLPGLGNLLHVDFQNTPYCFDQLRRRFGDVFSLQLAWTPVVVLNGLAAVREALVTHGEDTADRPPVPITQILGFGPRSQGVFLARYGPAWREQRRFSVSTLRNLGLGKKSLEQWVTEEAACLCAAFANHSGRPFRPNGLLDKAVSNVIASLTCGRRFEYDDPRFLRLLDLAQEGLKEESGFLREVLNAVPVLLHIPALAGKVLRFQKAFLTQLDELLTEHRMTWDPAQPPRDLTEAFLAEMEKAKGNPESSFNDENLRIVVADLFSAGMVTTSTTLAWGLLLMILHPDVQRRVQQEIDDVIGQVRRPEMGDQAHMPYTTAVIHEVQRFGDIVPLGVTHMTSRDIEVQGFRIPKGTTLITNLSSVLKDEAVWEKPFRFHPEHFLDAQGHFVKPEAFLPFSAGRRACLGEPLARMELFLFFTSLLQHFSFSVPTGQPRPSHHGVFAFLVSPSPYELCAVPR
# Method in brief: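 P450-Glo luminescent screen: recombinant CYP2D6 enzyme–proluciferin substrate mix preincubated with compound 10 min at room temperature, then NADPH regeneration added for 1 h at room temperature. Detection reagent added for 20 min; luciferin light read as relative luminescence units.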
# [5] = biological target: Cytochrome P450 2C9 (Homo sapiens) (UniProt P11712); assay: Cytochrome P450 family 2 subfamily C member 9 (CYP2C9) small molecule antagonists: luciferase biochemical (cell-free) qHTS assay (AID 1645842; active = well fitted curve in the direction sought with a large enough effect in the repeat runs; inconclusive = weak or mixed curves; inactive = no such curve, though single readings can be large; an effect the other way counts as inactive or inconclusive; note: nearly all actives have a fitted effect of over 55% in size)
# Chain of UniProt P11712 (P11712 whole entry, looked up): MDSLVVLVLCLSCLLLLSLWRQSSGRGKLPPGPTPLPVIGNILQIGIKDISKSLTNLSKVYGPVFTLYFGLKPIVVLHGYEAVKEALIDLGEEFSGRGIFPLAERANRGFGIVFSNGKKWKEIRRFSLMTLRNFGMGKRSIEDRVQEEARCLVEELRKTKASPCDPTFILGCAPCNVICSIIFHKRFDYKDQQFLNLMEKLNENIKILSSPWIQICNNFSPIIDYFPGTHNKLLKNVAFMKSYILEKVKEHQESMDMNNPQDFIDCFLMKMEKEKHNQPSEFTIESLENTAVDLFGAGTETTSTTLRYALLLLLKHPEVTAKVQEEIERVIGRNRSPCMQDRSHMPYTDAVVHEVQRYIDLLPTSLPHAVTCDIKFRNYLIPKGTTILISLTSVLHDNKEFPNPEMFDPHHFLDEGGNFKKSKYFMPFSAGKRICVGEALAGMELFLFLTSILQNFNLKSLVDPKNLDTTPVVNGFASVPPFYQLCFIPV
# Method in brief: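 Luminescence, after 20 min with luciferin detection reagent, reflected CYP2C9 turnover during a 1 h NADPH-driven reaction at 37C. Enzyme-substrate mix contained 0.4% bovine serum albumin and was preincubated with compound 10 min at room temperature.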
# [6] = Primary qHTS for inhibitors of nuclear receptor binding SET domain protein 2 (NSD2) in an RCH-ACV wild type WT cells (2C) (AID 1645877); conditions: activity change, negative = cell killing: at 44.9 µM (top of the series) unless noted; note: nearly all actives have a fitted effect of over 70% in size
# CASKI = assay: Primary qHTS to identify gynecologic anti-cancer compounds using libraries of approved drugs and bioactive compounds (AID 1345084); conditions: Gynecologic cancer cell panel viability, ATPlite luminescence, 48 h; series mostly up to 57.5 µM; note: nearly all actives have a fitted effect of over 55% in size; for activity change, negative = cytotoxicity: % is set by controls: 0 for no effect and ±100 for the full control effect
# Method in brief: as §1
# Hek293T = assay: as above; conditions: Gynecologic cancer cell panel viability, ATPlite luminescence, 48 h, control line for the selectivity index; activity change, negative = cytotoxicity: at 57.5 µM (top of the series) unless noted
# Method in brief: as §1
# OV90 = assay: as above; conditions: Gynecologic cancer cell panel viability, ATPlite luminescence, 48 h; series mostly up to 57.5 µM
# Method in brief: as §1
# [7] = Primary qHTS for inhibitors of nuclear receptor binding SET domain protein 2 (NSD2) in an isogenic RCH-ACV NSD2 p.E1099K mutant (9B) (AID 1645876); note: nearly all actives have a fitted effect of over 70% in size
# CAOV3 = assay: Primary qHTS to identify gynecologic anti-cancer compounds using libraries of approved drugs and bioactive compounds (AID 1345084); conditions: Gynecologic cancer cell panel viability, ATPlite luminescence, 48 h; activity change, negative = cytotoxicity: at 57.5 µM (top of the series); note: nearly all actives have a fitted effect of over 55% in size; for activity change, negative = cytotoxicity: % is set by controls: 0 for no effect and ±100 for the full control effect
# Method in brief: as §1
# [8] = test system: Zika virus NS2B-NS3 protease (unlinked complex); assay: Primary screen GU Rhodamine qHTS for Zika virus inhibitors: Unlinked NS2B-NS3 protease assay (AID 1347159); note: nearly all actives have a fitted effect of over 60% in size
# Method in brief: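 Percent inhibition derives from the 15-min fluorescence change (ex 480, em 540 nm), normalized to no-enzyme and no-inhibitor wells. Reactions contained 25 nM NS2B-NS3 complex and 1.5 microM substrate in 10 mM Tris-HCl pH 8.0.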
# PA-1 = assay: Primary qHTS to identify gynecologic anti-cancer compounds using libraries of approved drugs and bioactive compounds (AID 1345084); conditions: Gynecologic cancer cell panel viability, ATPlite luminescence, 48 h; series mostly up to 57.5 µM; note: nearly all actives have a fitted effect of over 55% in size
# Method in brief: as §1
# SKOV3 = assay: as above; conditions: Gynecologic cancer cell panel viability, ATPlite luminescence, 48 h; series mostly up to 57.5 µM
# Method in brief: as §1
# Potency is the fitted concentration of half-maximal effect; tags give direction and shape of the fitted curve.
smiles,measurement,setting,value
O=c1cc(CO)occ1O,Potency,[1],"inconclusive [inhibitor, full curve]"
same,max response,CRL-7250,inactive: -3.51%
same,Potency,C33A,inactive
same,Potency,Tov-21-G,inactive
CC[C@H](c1ccc(O)cc1)[C@@H](CC)c1ccc(O)cc1,Potency,[2],"inconclusive [inhibitor, single point]"
same,Potency,[3],"inconclusive [cytotoxic, single point]"
same,Potency,[1],inactive
same,Potency,[4],"inconclusive [inhibitor, single point]"
same,Potency,[5],"inconclusive [inhibitor, single point]"
same,Potency,[6],active: 8.41 µM
same,max response,CRL-7250,inactive: 3.93%
same,Potency,CASKI,inactive
same,Potency,Hek293T,"inconclusive [cytotoxic, single point]"
same,Potency,OV90,"inconclusive [cytotoxic, single point]"
C/C=C/c1ccc(O)c(OC)c1,Potency,[1],"inconclusive [inhibitor, full curve]"
same,Potency,[7],"inconclusive [inhibitor, single point]"
same,Potency,[6],"inconclusive [inhibitor, partial curve, poor fit]"
same,max response,CRL-7250,inactive: -0.654%
same,Potency,CAOV3,"inconclusive [rising, single point]"
Oc1cccc2[nH]ccc12,Potency,[1],"inconclusive [inhibitor, single point]"
same,Potency,[5],"inconclusive [inhibitor, partial curve]"
same,Potency,[7],"inconclusive [inhibitor, partial curve, poor fit]"
same,Potency,[6],"inconclusive [inhibitor, partial curve, poor fit]"
same,Potency,CRL-7250,"inconclusive [inhibitor, single point]"
same,Potency,CAOV3,inactive
CO[C@]12C[C@@H](COC(=O)c3cncc(Br)c3)CN(C)[C@@H]1Cc1cn(C)c3cccc2c13,Potency,[2],"inconclusive [inhibitor, partial curve, poor fit]"
same,Potency,[7],"inconclusive [inhibitor, partial curve]"
same,Potency,[6],"inconclusive [inhibitor, single point]"
same,Potency,CRL-7250,"inconclusive [inhibitor, single point]"
Cc1cc2ncc(C(=O)NCC(C)(C)NCC(=O)N3CCC[C@H]3C#N)cn2n1,Potency,[8],"inconclusive [inhibitor, single point]"
same,Potency,CRL-7250,"inconclusive [inhibitor, single point]"
same,Potency,C33A,"inconclusive [cytotoxic, full curve, poor fit]"
same,Potency,CAOV3,"inconclusive [cytotoxic, single point]"
same,Potency,CASKI,"inconclusive [cytotoxic, single point]"
same,Potency,Hek293T,"inconclusive [cytotoxic, single point]"
same,Potency,PA-1,"inconclusive [cytotoxic, single point]"
same,Potency,SKOV3,"inconclusive [cytotoxic, single point]"
same,Potency,Tov-21-G,"inconclusive [cytotoxic, single point]"
O=C1c2ccccc2C(=O)C1c1ccc(Br)cc1,Potency,[2],inactive
same,Potency,[3],inactive
same,Potency,[6],inactive
same,max response,CRL-7250,inactive: -1.25%
CCN(CC)CCOC(=O)C(c1ccccc1)C1CCCCC1 (stereo not given),Potency,[3],"inconclusive [cytotoxic, partial curve, poor fit]"
same,Potency,[1],"inconclusive [inhibitor, single point]"
same,Potency,[5],"inconclusive [inhibitor, single point]"
same,Potency,[7],"inconclusive [inhibitor, partial curve, poor fit]"
same,Potency,[6],"inconclusive [inhibitor, partial curve, poor fit]"
same,Potency,CRL-7250,"inconclusive [inhibitor, single point]"
same,Potency,OV90,"inconclusive [cytotoxic, partial curve, poor fit]"
COc1cc(C(=O)NC2CCN(C)CC2)ccc1Nc1ncc2c(n1)N(C1CCCC1)CC(F)(F)C(=O)N2C,Potency,[2],active: 1.16 µM
same,Potency,[4],"inconclusive [inhibitor, single point]"
same,Potency,CRL-7250,active: 2.31 µM
same,Potency,C33A,"inconclusive [cytotoxic, full curve, poor fit]"
same,Potency,CAOV3,active: 25.1 µM
same,Potency,CASKI,"inconclusive [cytotoxic, partial curve, poor fit]"
same,Potency,Hek293T,"inconclusive [cytotoxic, full curve, poor fit]"
same,Potency,OV90,active: 22.4 µM
same,Potency,SKOV3,active: 15.8 µM
same,Potency,Tov-21-G,inconclusive
CCC1Nc2cc(Cl)c(S(N)(=O)=O)cc2S(=O)(=O)N1 (stereo not given),Potency,[2],inactive
same,Potency,[3],inactive
same,Potency,[5],inactive
same,Potency,CRL-7250,"inconclusive [inhibitor, partial curve, poor fit]"
same,Potency,Hek293T,"inconclusive [rising, partial curve, poor fit]"
same,Potency,OV90,inactive
